Reference: the supplement of paper PMC3334620
The full ranking holds about 33,000 sequences; the median of “E-score (-0.5 to 0.5)” is about -0.032, and the highest 2% start at about 0.36. The list shows a part of the results.

The sequences below were run against T1, Sko1 (UniProt Q02100) (assay: PBM E-score (8-mer binding enrichment) (E-score (-0.5 to 0.5)); higher = stronger / more preferred TF binding; most listed sequences are background and not binding sites). Details: protein concentration: 200 nM; construct: GST-full length.
T1 sequence: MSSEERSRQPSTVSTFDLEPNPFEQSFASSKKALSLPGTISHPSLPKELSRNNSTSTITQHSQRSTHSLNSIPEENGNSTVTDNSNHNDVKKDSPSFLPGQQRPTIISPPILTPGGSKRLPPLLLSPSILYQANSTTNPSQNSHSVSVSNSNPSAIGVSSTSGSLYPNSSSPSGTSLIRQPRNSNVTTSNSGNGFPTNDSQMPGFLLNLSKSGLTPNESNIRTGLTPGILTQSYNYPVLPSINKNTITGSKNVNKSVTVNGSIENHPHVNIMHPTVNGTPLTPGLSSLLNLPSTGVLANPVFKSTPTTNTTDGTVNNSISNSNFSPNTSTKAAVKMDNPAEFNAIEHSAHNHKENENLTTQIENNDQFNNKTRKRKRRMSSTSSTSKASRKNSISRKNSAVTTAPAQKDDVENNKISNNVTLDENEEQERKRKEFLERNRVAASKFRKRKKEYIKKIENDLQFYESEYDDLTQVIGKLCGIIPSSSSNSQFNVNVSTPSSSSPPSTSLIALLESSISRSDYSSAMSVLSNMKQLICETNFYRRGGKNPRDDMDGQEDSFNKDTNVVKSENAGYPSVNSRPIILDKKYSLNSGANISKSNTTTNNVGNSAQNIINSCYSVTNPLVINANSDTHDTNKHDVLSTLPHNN
Procedure, shortened: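 For each ungapped eight-base word taken together with its reverse complement, the Universal PBM Analysis Suite assigned an E-score. Binding data came from GST-tagged yeast transcription factors, applied at about 100-200 nM, on universal all-10-mer Agilent arrays made double-stranded by primer extension. Fluorescent anti-GST marked bound protein, and scans were normalised with masliner.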

Sequence	PBM E-score
CGGCTGGC	-0.282
ATGTAAGA	0.25
ATTTGTCA	0.217
ACACGACG	0.251
ACTTCCAA	-0.0994
ATGCACAT	0.155
CCGGGGAG	-0.11
ACCAGGGA	-0.172
AATCAAGT	-0.00666
ACTAGAAT	0.111
AACTATGT	0.157
CAAACCGC	-0.269
ACGCGCAA	0.209
GTGACTCA	0.0578
ACCACCTG	-0.175
GCAGTCAC	-0.0169
CGATGCCA	-0.138
CACTCATA	0.14
AATTGTTG	0.123
GATAAAGA	0.114
ACAGATTG	-0.183
AAGGGCTC	-0.343
CAAAGTAA	-0.0412
ACTTCAAA	0.052
ACCCTTCG	-0.0991

Sequence	PBM E-score
AATTTGGA	0.026
ACCAATGC	-0.206
CGATATAA	0.157
CCGGAAAA	-0.0524
AGAATTGG	-0.013
CCATCCGG	-0.228
CTACACAG	-0.0733
GTAGGCAC	-0.0535
AACGATTC	0.122
ACTTTCGG	0.0182
CAAGTCGG	-0.242
CCGGATAG	-0.045
ACCAAAAG	0.0263
AATGCAGC	-0.179
GGGGCATA	-0.202
TCATAAGA	0.191
TACATCCA	0.154
CGCGGTAC	0.0928
ACCGAGTG	-0.291
TAATTTCA	0.222
AGGCTGCG	-0.126
CCTGGGCC	-0.299
CCAGTAAA	-0.0291
GACTCTAA	-0.0874
AGTATTCA	0.23

Sequence	PBM E-score
TCATCCCA	-0.0536
CGACCGGA	-0.299
GTGGAAGA	0.0579
TATTGAGA	0.141
CCTTTAAG	-0.162
ACCGGCGG	-0.265
ACTGGCGG	-0.115
GTAAGTCA	0.227
CGGCCGAC	-0.15
ACAGAGAA	-0.102
CTAGGTGC	-0.138
CGAAAAAG	0.0536
ACGCCCGA	-0.237
ACTTCCCA	-0.0631
AAAATTTA	0.177
GCATCAAC	0.0248
CCTGTAAG	-0.134
CTCGCATA	0.0768
ACTAGTCA	-0.0561
AAGGGTTG	0.104
GTGCCAAA	-0.0151
CCCGATAC	-0.0866
CTACGAAC	0.0886
CCGGCCCA	-0.348
AAGTTACC	0.0687

Sequence	PBM E-score
AAATATCA	0.101
ATACAGAT	0.14
TCTGAACA	0.117
CTATTAGA	0.112
ATGGTCTA	-0.0629
CCAATAGG	-0.12
GAAACGTC	0.385
AGAGTGAT	-0.116
GTTAATTA	0.281
CTTTAACA	0.0632
AGCCGGGA	-0.121
ACGGTTCT	-0.0413
ATGTCAGC	0.129
ATGTTCTC	0.0399
CTACTTTC	0.0651
CGCGGCGA	-0.0754
AACGGACG	-0.0457
ATCGAGTA	-0.00257
AGTTATGA	0.123
TCCACTCA	-0.132
CTTTGTGC	0.0814
ATACCCTC	-0.0318
CCGCATTA	-0.0763
AAAATAAA	0.198
CGGTCGAC	-0.137

Sequence	PBM E-score
GTGTGCGA	-0.0235
GTTGAGGA	-0.0514
TGATGCCA	0.172
CGGTTGTA	-0.164
ATTCAAAA	0.133
CGGCGAAC	-0.28
ACGAACTA	0.228
CTCTTCAA	-0.154
GATTTTCC	-0.127
AAACTGAC	0.228
ACTAATAG	0.0895
TCGGTCCA	0.00791
ATGGCGAC	-0.121
GTACTGTA	-0.105
AGCGAAGA	-0.11
AAGCTCCG	-0.18
AAACACAG	0.0223
TCGTCAAA	0.281
CCCGTTAC	0.0449
CTACGGTA	0.0952
CGGGGTGC	-0.333
GAGATGTA	0.105
CTGCTGTA	-0.133
GAAGAAGA	-0.109
CCTGCTTA	-0.0415

Sequence	PBM E-score
AAACTGCT	-0.127
CTTGTTAA	-0.0398
AACTGCCT	-0.0481
ATCCCCTC	-0.162
CGTACGAA	0.269
AAACTGTC	-0.107
CTCCGGGA	-0.308
AGATGCGA	-0.116
CCAAGAGA	-0.252
CATCTGCG	-0.0247
CGTTTTGA	0.189
AGTTGAAA	0.0183
CCCTCTCC	-0.321
ATATGTGA	0.187
CCGACAAG	-0.21
CCAGTGGA	-0.17
CTTCACAC	0.0799
ATAGTAGG	-0.0114
AGGTTCAA	0.124
GGGCGGAC	-0.251
TACCTAAA	0.128
CTGTGCGC	-0.113
TGGCACAA	0.0381
ATAACTGA	0.0367
GTTGAAAC	0.121

Sequence	PBM E-score
GAGTAATA	0.183
ACATTACT	0.0825
AGACTCTC	-0.149
CCATTAAC	0.154
TCGTGGAA	0.0519
CGAGATTA	0.238
AAGAAGCC	-0.0816
AACGTCAT	0.493
AGTTAGGC	-0.0067
AGCATCAA	0.0245
ACGTCCGG	0.201
GGGCTTTA	-0.328
CACTTGTC	-0.18
ACGCTGAA	-0.0879
CTAGCCGA	-0.202
TAACTCCA	-0.0944
GCGCCTCC	0.00621
GTCCAACA	0.046
CTTATGGC	-0.0335
AAGACCGT	-0.126
AGTCCCGA	-0.274
CTCGCTGC	-0.155
ACCTAAGG	-0.0785
ATGGGATG	-0.134
CTGGCACA	-0.071

Sequence	PBM E-score
ATTTTCGC	0.0516
AATAGCAC	-0.195
GCGTAGTA	0.279
CAAATGAC	0.294
AACTCAAC	0.0483
GCCAGGCC	-0.373
GTCATCAA	0.33
AAGCGAGA	-0.145
ACCTCGGA	-0.19
GACCCGGC	-0.297
GCGGCACA	-0.283
CACGTTGA	0.25
GGTTCGGA	-0.37
TCTACAGA	0.0146
AGCAAACG	0.0079
ATGAGCGA	0.102
GTTTAGCA	0.0596
ATTTAACC	0.0003
AACAACTA	0.0662
TCCAGCGA	-0.12
CGAGGAGC	-0.189
GCAACTAC	0.0852
GCTAGCCA	-0.263
CACGACTA	-0.0227
CTCTATGC	-0.0516

Sequence	PBM E-score
GTTACCGA	-0.129
TAGAACAA	0.0369
CACGGGCC	-0.352
CGGATTAA	0.0258
CGCGTATA	0.244
GTCCGAAC	-0.26
AGGGGCAC	-0.0652
CACAAACG	0.191
CCGTGGAC	-0.231
CGGGATAA	0.0877
AGTTCAGG	-0.176
AGTGGACA	0.0063
ATCTAGCG	-0.137
CCTTTGGC	-0.297
CACTAGAA	0.023
CGAATTTC	0.195
CACCTCCG	-0.239
CCGGCGGC	-0.271
CACGACAC	0.0587
CCACAAGA	-0.179
ATAGCATG	0.0235
GGATAAAA	-0.0555
AGACACAC	0.148
CGAACCCC	-0.174
ATGTTGTC	0.173

Sequence	PBM E-score
AGGTGCGC	-0.224
CTGAACCC	-0.261
CCAACGAA	-0.0193
GAATTCTA	0.0361
GTACTCCA	-0.0378
GAAGTTCC	-0.302
AAGTAACC	0.0316
GCGACAAC	0.152
GCCTAATA	0.0113
ATGCGTCA	0.467
TAGACCGA	-0.0276
CCTCATTC	-0.0556
CTATAAAA	0.0949
ATCGTATG	0.313
CCTTCCCA	-0.146
AGTGGGAT	-0.0477
AAGACCCA	-0.212
AAATAACA	0.204
GCACACGC	0.107
CTAATACA	0.101
TAATCTAA	0.145
GATACGGC	-0.143
CCAGAAGC	-0.316
ATAGCCCC	-0.244
GCCAAGCA	-0.0969

Sequence	PBM E-score
CAGATCAA	-0.0787
CCATCAAA	0.00561
GTATCATA	0.275
AAGCCTTC	-0.176
CTGGACTC	-0.0221
ACGTCAGA	0.479
CGGTGAAG	-0.173
CCATCTCA	-0.105
CAAGTCGC	-0.173
ACGAGCAC	-0.0211
ACCTTCAA	-0.0578
AGAAATTG	0.145
CCATCGCA	-0.183
GGCCTATA	-0.291
CTACTCTC	-0.211
ATACGCTC	0.151
AATTTTAG	-0.0264
AGTGCGGC	-0.213
CGTTGGTC	0.00799
CCTTTCGC	-0.152
ACTCCTAT	0.0982
CACCGTAG	-0.111
CGCCCGCG	-0.155
CGGGTACA	-0.279
GACCCGAC	-0.164

Sequence	PBM E-score
TATCATGA	0.244
ACCTAGAA	0.0146
ACCTTATA	0.0285
CCAAACGG	-0.31
GCCTTCCA	-0.222
ATTTATAC	0.277
AATTGGCC	-0.147
AGCCGGAC	-0.00106
CGCAGGTA	-0.0238
GGGGAGAA	-0.194
CGCCCCCC	-0.443
CCGGTTAA	-0.153
CGTTACTC	0.106
GTAAAGTA	0.291
CCAATGTA	-0.208
GCACGACC	-0.266
CAAGTGTC	-0.125
AACCAGAG	-0.201
ATTCCCTC	-0.151
AAGCGGGT	-0.268
CCTTAAGA	-0.167
GAACAGAA	-0.00509
ATATAGAG	-0.151
ACCTCCTA	-0.243
CAGAATCG	-0.0197

Sequence	PBM E-score
GCAGGATA	-0.0876
AGTTACAC	0.15
CGACATAC	0.251
AGTTGGAT	0.0493
GACGGCAC	-0.055
TCAACAGA	-0.0092
CGCAGTGC	-0.102
AGCGAGAA	-0.152
ACGTATCG	0.452
ACGTGCTC	0.291
ACGGCTCA	-0.165
ATACTAAC	0.0101
CAGAAGCA	-0.122
ACGTACTG	0.412
CCCGGGCG	-0.156
CACGTAGG	0.396
CGGAATTC	-0.122
CTTATTAC	0.245
ACCGTGCC	-0.164
GATCACCC	-0.21
CGTGCACC	0.051
ACTGCTGG	-0.307
ACCTACTG	-0.0696
CTGCGAGA	-0.169
ACAATTCA	0.0199

Sequence	PBM E-score
ACACCTGC	-0.064
ATGTATTC	-0.0566
TCCTGTAA	0.0112
CTCGGCCA	-0.233
AAAGTTTG	0.155
ACGAGTAA	0.155
GCTCAGTA	0.159
CTTATAAC	0.197
ATACAGCG	-0.0118
CTACCCAC	-0.132
CTGTCAAA	0.0958
ATAGGCAT	-0.15
ACTACTAT	0.132
GTCACACA	0.0871
GATGGCGC	-0.195
CGTGGATC	0.154
ACGTAAGA	0.476
GACTCGAA	-0.281
TAATTCAA	0.265
